According to PubChem BioAssay AID720647 (Broad Institute, 2013):
The whole screen tested about 380,000 compounds, of which about 1,300 (0.34%) were called active. The inconclusive results got no clear call from the source; some entries with a clear call stand among them for comparison.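 Rule for the calls: active = drop in luminescence signal, shown as inhibition above about 50% in the replicate tests (limit read from the data, passing the limit was not always enough); inconclusive = probably only some replicates passing the limit; inactive = the rest.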

Each molecule was assayed on Drosophila bursicon receptor LGR2 (rickets) (assay: inhibitors of bursicon-induced LGR2 CRE-luciferase signal, primary screen, cell-based, HEK293, CRE-luciferase reporter, bursicon stimulation (AID 720647;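 note: agonist challenge used bursicon conditioned medium at about half maximal strength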)). Conditions: bursicon-stimulated, 4 h, at 9.99 µM, stronger effect = higher value.

| SMILES | inhibition |
| --- | --- |
| O=[N+]([O-])c1ccc(N/N=C/c2sc(N3CCOCC3)nc2-c2ccccc2)c(S(=O)(=O)Nc2ccccc2Cl)c1 | inconclusive: 44.2% |
| NC(=S)N/N=C/c1ccccc1 | inactive: 10.3% |
| Cc1ccc(/C=C2/CNC/C(=C/c3ccc(C)cc3)C2=O)cc1 | active: 55.1% |
| COc1ccc(NC(=O)N(C)C[C@H]2Oc3ccc(NC(=O)NC4CCCCC4)cc3CC(=O)N([C@H](C)CO)C[C@@H]2C)cc1 | inactive: 6.06% |
| CC1=NNC(=O)/C1=C\c1cn(-c2ccccc2)nc1-c1ccc(Cl)cc1 | inconclusive: 53.6% |
| CCOC(=O)c1ccccc1NC(=O)c1cccc2c1C(=O)N(C1CCN(C(=O)OCC)CC1)C2 | inactive: 2.31% |
| NCC[C@@H]1CC[C@@H](NC(=O)c2ccccc2F)[C@H](CO)O1 | inactive: 4.75% |
| Cc1ccc2c(c1)COc1c3ccc(C(=O)O)cc3nn1-2 | inconclusive: 56% |
| CCN(C(=O)COC(=O)CNC(=O)c1ccc2ccccc2c1)C1CCS(=O)(=O)C1 (centres undefined) | inconclusive: -9.38% |
| COc1ccc(NC(=O)Nc2ccc3c(c2)CC(=O)N([C@H](C)CO)C[C@@H](C)[C@H](CN(C)C(=O)Nc2c(C)noc2C)O3)cc1 | inactive: -0.666% |
| CC1(C)CC[C@]2(C(=O)O)CC[C@]3(C)C(=CC[C@@H]4[C@@]5(C)CC[C@H](O[C@@H]6O[C@H](C(=O)O)[C@@H](O)[C@H](O[C@@H]7OC[C@H](O)[C@H](O)[C@H]7O)[C@H]6O)C(C)(C)[C@@H]5CC[C@]43C)[C@@H]2C1 | inconclusive: 78.4% |
| CC(=O)Cn1ncc(Br)c(Br)c1=O | active: 106% |
| CCCCNc1c(-c2cccc(-c3ccc(OC)cc3)c2)nc2ccc(C)cn12 | active: 68% |
| CO[C@@H]1CN(C)C(=O)c2ccc(NC(C)=O)cc2OC[C@H](C)N(Cc2cc(F)ccc2F)C[C@H]1C | inactive: -9.23% |
| Cc1ccc(Nc2nc3ccccc3s2)c(C)c1 | inconclusive: 56.9% |
| Cc1ccc(C(=O)C2C(=O)C3CCC2C3)cc1 (centres undefined) | active: 63.4% |
| CC(=O)C1=C(O)C(=O)N(Cc2cccnc2)C1c1ccc(O)cc1 (centres undefined) | inconclusive: 30.7% |
| C=CCN=C1NN=C(c2cc(C)n(CCOC)c2C)CS1 | inconclusive: 55.9% |
| Cc1ccc2nc(-c3ccc(NC(=O)c4cccnc4)cc3)oc2c1 | inconclusive: 49.5% |
| Cc1c(/C=N/NC(=O)c2ccccc2O)c2ccccn2c1C(=O)c1ccc(F)cc1 | inconclusive: 47.5% |
| O=C1/C(=N\S(=O)(=O)c2cccs2)C([n+]2ccccc2)=C([O-])c2ccccc21 | inconclusive: 50.1% |
| COc1ccc(S(=O)(=O)Nc2ccc3c(c2)CC(=O)N([C@@H](C)CO)C[C@H](C)[C@@H](CN(C)Cc2ccc(Cl)c(Cl)c2)O3)cc1 | inconclusive: 30.7% |
| O=C(c1ccc(S(=O)(=O)c2cccc(Cl)c2)c([N+](=O)[O-])c1)N1CCN(c2ccccn2)CC1 | active: 58.7% |
| CCCN(C(=O)c1cn(CCC)c2ccccc12)c1ccc(Oc2cccnc2)cc1 | inconclusive: 56.8% |
| CCCCc1c(Cc2cccc(F)c2)ncn1CCc1ccccc1OC | inconclusive: 37.1% |

| SMILES | inhibition |
| --- | --- |
| N/C(=N\OC(=O)COc1ccc(Br)cc1Cl)c1ccccn1 | inconclusive: 46.5% |
| COc1cccc(N2CCN(c3ncnc4c3cnn4-c3ccc(C)cc3C)CC2)c1 | inconclusive: -5.39% |
| Cc1noc(C)c1S(=O)(=O)Nc1ccc2c(c1)CC(=O)N([C@@H](C)CO)C[C@@H](C)[C@@H](CN(C)CC1CCCCC1)O2 | inactive: 9.63% |
| Nc1ncn([C@@H]2O[C@H](CO)[C@@H](O)[C@H]2O)c(=O)n1 | inconclusive: 36.6% |
| COC(=O)C1=C(C)N(c2ccc(Cl)cc2)/C(=C/c2ccc(O)cc2)C1=O | inactive: 31.9% |
| O=C(c1cc(-c2ccc(Cl)cc2Cl)on1)N1CCCC1 | active: 75.1% |
| COc1ccc2c3c([nH]c2c1)[C@H](CO)N(C(C)=O)CC31CCN(C(=O)CN2CCOCC2)CC1 | inconclusive: -13.8% |
| C[C@H](NC(=O)N(C)C[C@H]1OCc2ccccc2-c2ccccc2C(=O)N([C@@H](C)CO)C[C@@H]1C)c1ccccc1 | inactive: -7.11% |
| C/C=C/c1cnc2c(c1)C(=O)N([C@H](C)CO)C[C@H](C)[C@H](CN(C)Cc1ccccc1)O2 | inactive: -12.4% |
| Cc1cccc(-n2ncc3c(N4CCOCC4)ncnc32)c1 | active: 90.5% |
| O=c1c(Cl)c(Cl)cnn1Cc1nnc(-c2ccccc2Br)o1 | active: 103% |
| CCN1CCN(CCNC(=O)c2ccc(/C=C3/Sc4ccccc4N(Cc4cccc(C)c4)C3=O)cc2)CC1 | inconclusive: 20.1% |
| CCCCCCCCn1c2c(c(=N)c3c1CCC3)CCCC2 | active: 52.6% |
| CC(C)C(=O)NC(c1ccco1)c1ccc2cccnc2c1O (centres undefined) | inconclusive: 23.3% |
| C[C@@H]1CN([C@H](C)CO)S(=O)(=O)c2ccc(C3=CCCCC3)cc2O[C@H]1CN(C)C | inactive: 9.91% |
| COc1ccc(S(=O)(=O)N(C)C[C@@H]2OCc3cnnn3CCCC(=O)N([C@@H](C)CO)C[C@H]2C)cc1 | inconclusive: 53.7% |
| O=C(Nc1cccc(C(=O)O)c1)Nc1ccccc1Cl | active: 70.4% |
| O=C(Nc1cccc(Cl)c1)Nc1cccc(C(=O)O)c1 | inconclusive: 40.4% |
| CCOC(=O)c1nnn(-c2nonc2N)c1-c1ccc(Br)cc1 | inconclusive: 95.4% |
| COc1ccc(-n2sc3ccc(F)cc3c2=O)cc1 | inconclusive: 35.8% |
| C[C@H]1CN([C@@H](C)CO)C(=O)c2cc(NS(C)(=O)=O)ccc2O[C@@H]1CN(C)Cc1ccc(-c2ccccc2)cc1 | inactive: 4.1% |
| CCOC(=O)C1CCN(c2c(Nc3ccc4c(c3)OCCO4)c(=O)c2=O)CC1 | inactive: -17.2% |
| COc1ccc(-c2noc([C@@H]3O[C@H](CO)[C@H](O)[C@H](O)[C@H]3O)n2)cc1OC | inconclusive: 58.7% |
| NC(c1ccccc1)c1csc(NC(=O)Nc2cccc(C(F)(F)F)c2)n1 (centres undefined) | inconclusive: 48.5% |
